Test results: PubChem BioAssay AID1345082 (National Center for Advancing Translational Sciences (NCATS), 2018)
The campaign covered roughly 94,000 compounds. About 4,000 (4.3%) were called active. The shares of active, inactive and inconclusive entries below differ from those in the screen. The call rests on the fitted dose curve; in most records, active means well fitted inhibition curve with a large enough effect; inconclusive means small, poorly fitted or top-dose-only effect; inactive means no such curve, though single readings can be large or run the other way. Potencies beside an inconclusive call are fits to weak or partial responses and may not hold up.

experiment: Cytotoxic Profiling in NIH 3T3 Cell Line of Diverse Libraries Using Quantitative High-Throughput Screening; details: NIH 3T3 viability, CellTiter-Glo ATP luminescence, 48-72 h; activity change, negative = cytotoxicity: at 96.7 µM (top of the series) unless noted; series mostly up to 96.7 µM; further: nearly all actives have a fitted effect of over 55% in size
Outline: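 Cytotoxicity is measured as loss of cellular ATP: NIH 3T3 cells (400/well) are exposed to compound for 48 or 72 hr at 37 °C, then CellTiter-Glo luminescence is imaged after 10 min at room temperature.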
On the % scale 0 is the no-effect control and ±100 the full control effect; potency means the concentration at half of the fitted maximal effect; tags describe the fitted curve by direction and shape.

Compound | Potency | activity change, negative = cytotoxicity | outcome
COc1ccc(-c2ccc3c(n2)c(=O)ncn3Cc2ccccc2)cn1 | inconclusive: 112 µM [inhibitor, partial curve, poor fit] |  | 
COc1cc(Cl)ccc1C(=O)NC1CCc2nn(CC3CC3)c(=O)n2CC1 (stereo not drawn) | inconclusive: 56.2 µM [inhibitor, partial curve, poor fit] |  | 
CCOc1cccc(CN(CCO)Cc2nccn2-c2ccc(OC)cc2)c1 | inconclusive: 56.2 µM [inhibitor, partial curve, poor fit] |  | 
CCC(NC(=O)c1ccc2nc(-c3ccc(F)cc3)cn2c1)c1cccnc1 (stereo not drawn) | inconclusive: 79.4 µM [inhibitor, partial curve, poor fit] |  | 
O=C1NC(=NC2CCCC2)C2(CCN(Cc3ccsc3)CC2)N1c1cc(F)cc(F)c1 |  | inactive: 0.492% | 
COc1ccc(Nc2ccnc(N3CCN([S+](=O)([O-])c4ccc(C)cc4)CC3)n2)cc1 | inconclusive: 22.4 µM [inhibitor, full curve, poor fit] |  | 
Cc1cc(C)cc(-c2ccc(CN3CCCC3C(=O)NCC3CC3)cc2)c1 (stereo not drawn) | active: 39.8 µM |  | 
O=C(Nc1ccc(C(F)(F)F)cc1)N1CCCC1c1nncn1C1CCCC1 (stereo not drawn) | inconclusive: 35.5 µM [inhibitor, single point] |  | 
O=C(c1ccc(Cl)cc1)N1CCOC(CN(C(=O)c2ccc(F)cc2)C2CCCC2)C1 (stereo not drawn) | inconclusive: 44.7 µM [inhibitor, partial curve, poor fit] |  | 
CS(=O)(=O)N1CCC(C2CCN(Cc3ccc[nH]3)C2)CC1 (stereo not drawn) |  | inactive: -7.59% | 
Cc1noc(C)c1S(=O)(=O)N1CCCC(CCc2ccc(F)c(F)c2)C1 (stereo not drawn) | inconclusive: 35.5 µM [inhibitor, partial curve, poor fit] |  | 
O=C(NC1CCCc2ccccc21)C1CN(C2CCCCC2)C(=O)N1 (stereo not drawn) |  | inactive: -23.9% [at 138 µM] | 
N#Cc1ccc(CN2CCC3(CC2)COCCN3C(=O)OCc2ccccc2)cc1 | inconclusive: 63.1 µM [inhibitor, partial curve, poor fit] |  | 
Cc1cccc(N2CCN(C(=O)C3N(C(C)C)C(=O)C34CCCCC4)CC2)c1 (stereo not drawn) | inconclusive: 44.7 µM [inhibitor, partial curve, poor fit] |  | 
Cc1cc(Cn2cc3c4c(cccc42)[C@H](CC(C)C)N[C@H](C(=O)NCc2ccccn2)C3)no1 | inconclusive: 50.1 µM [inhibitor, partial curve, poor fit] |  | 
O=S(=O)(c1ccccc1)N1CCCC(c2nc(CCOCC3CC3)no2)C1 (stereo not drawn) |  | inactive: -29.5% | 
Cc1nn(-c2ccc(C(F)(F)F)cc2)c(C)c1[C@@H]1C=C[C@@H](NC(=O)c2cccnc2)C1 | active: 28.2 µM |  | 
Cc1cn2nc(C(=O)NCC(C)c3ccccc3)cc2c(N2CCSCC2)n1 (stereo not drawn) | inconclusive: 44.7 µM [inhibitor, partial curve, poor fit] |  | 
COCC(=O)N1CCC(C(=O)N2CCC3(CC2)CC(=O)Nc2ccccc2O3)CC1 |  | inactive: 0.508% | 
CC(=O)N1CCN(C(=O)c2ccc3nc(-c4ccnc(Cl)c4)oc3c2)CC1 |  | inactive: -24.3% [at 138 µM] | 
O=C(c1ccccc1Cl)N1CCN(c2ccc3nnc(C4CC4)n3n2)CC1 |  | inactive: -24.7% | 
CC(=O)N1CCN(C(=O)c2ccccc2N2CCOCC2)CC(O)C1 (stereo not drawn) |  | inactive: 1.1% | 

Compound | Potency | activity change, negative = cytotoxicity | outcome
Cc1ccc(CN2CCc3oc(C)c(C(=O)NCCCN4CCN(C)CC4)c3C2)cc1 | inconclusive: 56.2 µM [inhibitor, partial curve, poor fit] |  | 
O=C1CCN(C2CCCC2)CCOCCN1 |  | inactive: -17.3% | 
COCc1ccc(C(=O)N2CC[C@@H](NC(=O)c3cnccn3)[C@H](O)C2)o1 |  | inactive: 1.1% | 
CN1CCCN(C(=O)c2ccccc2OC(F)(F)F)c2ccccc21 |  | inactive: -29.8% | 
COc1ccc(-c2nc(N3CCOCC3)cc3c2CN(Cc2ccccc2)C3=O)cc1 | inconclusive: 100 µM [inhibitor, single point] |  | 
Cc1cccc2c1nc1n2[C@@H](CNC(=O)c2ccc(C#N)cc2)COC1 | inconclusive: 79.4 µM [inhibitor, partial curve] |  | 
O=C(c1ccc(Cl)cc1)N1CCC(N2CCOC2=O)CC1 | inconclusive: 89.1 µM [inhibitor, partial curve, poor fit] |  | 
COc1ccc2c(c1)CN(CC1CC1)C(=O)CCN2C[C@@H](O)COCc1ccccc1 | inconclusive: 10 µM [inhibitor, full curve, poor fit] |  | 
CCc1noc(-c2cn(C3CCN(C(=O)C(C)Oc4cccc(Cl)c4)CC3)nn2)n1 (stereo not drawn) | inconclusive: 11.2 µM [inhibitor, partial curve, poor fit] |  | 
O=C1NC(=NC2CCCCC2)C2(CCN(Cc3cccnc3)C2)N1c1cccnc1 (stereo not drawn) | active: 39.8 µM |  | 
COc1ccc(C(=O)NC2CCN(c3ccc4nnc(C5CC5)n4n3)C2)cc1 (stereo not drawn) |  | inactive: -18.2% | 
O=C1NCCOCCCN(C(=O)NCc2ccccc2)[C@H]2CCC[C@@H]12 |  |  | inactive
O=[S+]([O-])(Nc1ccccc1)c1ccc2c(c1)OCCN(Cc1cncnc1)C2 | inconclusive: 63.1 µM [inhibitor, partial curve, poor fit] |  | 
CCCc1nnc(NC(=O)C2CC(=O)N(c3n[nH]c4cc(Br)ccc34)C2)s1 (stereo not drawn) | inconclusive: 25.1 µM [inhibitor, single point] |  | 
Cc1ccc(OCc2nc(C3CCN(C(=O)Cc4cccc(F)c4)CC3)no2)cc1 | inconclusive: 39.8 µM [inhibitor, partial curve, poor fit] |  | 
CCN(CC)C(=O)C[C@@H]1CCNC[C@@H]1Cc1cc(-c2ccccn2)on1 |  | inactive: -25% [at 174 µM] | 
COC1CCOC2(CCN(C(=O)Cc3ccccc3)CC2)C1 (stereo not drawn) |  | inactive: 4.2% | 
COc1ccc(Cn2c(=O)c(C(=O)N3CCN(C(=O)c4ccccc4OC)CC3)nc3cccnc32)cc1 |  | inactive: -20% | 
Cc1ccccc1-c1noc(CCC(=O)N2CCC3(CCCNC3)C2)n1 (stereo not drawn) | inconclusive: 63.1 µM [inhibitor, partial curve, poor fit] |  | 
O=C(c1ccc(Cl)cc1)N1CC2(CCN(CC3CC3)C2)OCc2ccccc21 (stereo not drawn) | inconclusive: 70.8 µM [inhibitor, single point] |  | 
CN1CCC(N2CCC[C@@H](O)[C@H](NC(=O)c3ccc(OCc4ccccc4)cc3)C2)CC1 | inconclusive: 50.1 µM [inhibitor, partial curve, poor fit] |  | 
